A short description of the data set: xn = mol fraction of the nth substance listed. The following applies: 298.15 K, 101 kPa.

The densities may have been worked out from excess volumes.

As usually defined, the mass density is the mass of a sample divided by its volume. For `CCCCCC[n+]1ccn(C)c1.F[B-](F)(F)F` + CC(C)(C)O, the mass density (x2 = 0) was 1145.2 kg/m3; the mass density (x2 = 0.1) worked out at 1129.3 kg/m3; the mass density (x2 = 0.1449) was determined as 1121.5 kg/m3; the mass density (x2 = 0.4008) worked out at 1066.3 kg/m3; the mass density (x2 = 0.4992) was 1038.7 kg/m3; the mass density (x2 = 0.6009) is reported as 1005 kg/m3. Besides, the mass density (x2 = 0.7007) was found to be 965.3 kg/m3 and the mass density (x2 = 0.8983) amounted to 858.5 kg/m3.

Regarding `CC(C)(C)O` + CCCCCC[n+]1ccn(C)c1.F[B-](F)(F)F, the mass density (x1 = 1) was 781.1 kg/m3.

As to `CCCN` + CCCCCC[n+]1ccn(C)c1.F[B-](F)(F)F, the mass density is reported as 1114.6 kg/m3 (x1 = 0.1949); 1094.8 kg/m3 (x1 = 0.2959); 1075.2 kg/m3 (x1 = 0.3803); 1005 kg/m3 (x1 = 0.5991); 958.3 kg/m3 (x1 = 0.7005); 894.4 kg/m3 (x1 = 0.8066). For the same compound, the mass density (x1 = 1) turned out to be 711 kg/m3.

For the origin of these results see a compilation of properties of binary mixtures (doi:10.1016/j.molliq.2013.09.012).
